In PubChem BioAssay (NCI):
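These data come from cells grown in 96-well plates and exposed to compound for 48 hours at five concentrations. GI50 marks 50% less growth.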 Not every entry of the source has a single result; some have several. The other results are left out here. The source may hold further records. For some of these results: Results that share an entry are repeated measurements (runs, samples, wells, individuals or studies). Records carry a tag for their origin. A, B and so on number the origins entry by entry.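 TGI: concentration producing complete growth inhibition.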 For some of these results: Records of one sample usually come from different ranges of test concentrations, which the source does not state; a value can be the end of its range.

Columns and labels:
Test in all cases: inhibition of tumour cell growth, NCI panel, 48 h
SR leukemia = test system: SR leukemia
MOLT-4 leukemia = test system: MOLT-4 leukemia
NCI/ADR-RES ovarian = test system: NCI/ADR-RES ovarian
A498 renal = test system: A498 renal
OVCAR-4 ovarian = test system: OVCAR-4 ovarian
TK-10 renal = test system: TK-10 renal
HS 578T breast = test system: HS 578T breast
CCRF-CEM leukemia = test system: CCRF-CEM leukemia
HCT-15 colon = test system: HCT-15 colon
SN12C renal = test system: SN12C renal
T-47D breast = test system: T-47D breast
IGROV1 ovarian = test system: IGROV1 ovarian
OVCAR-5 ovarian = test system: OVCAR-5 ovarian
MDA-MB-231 breast = test system: MDA-MB-231 breast
HL-60(TB) leukemia = test system: HL-60(TB) leukemia
NCI-H23 lung = test system: NCI-H23 lung
SNB-75 CNS = test system: SNB-75 CNS
NCI-H522 lung = test system: NCI-H522 lung
OVCAR-8 ovarian = test system: OVCAR-8 ovarian
MALME-3M melanoma = test system: MALME-3M melanoma
SK-OV-3 ovarian = test system: SK-OV-3 ovarian
SW-620 colon = test system: SW-620 colon
SNB-19 CNS = test system: SNB-19 CNS
ACHN renal = test system: ACHN renal
MCF7 breast = test system: MCF7 breast
HOP-92 NSCLC = test system: HOP-92 NSCLC
COLO 205 colon = test system: COLO 205 colon
SF-295 CNS = test system: SF-295 CNS
UO-31 renal = test system: UO-31 renal
MDA-MB-435 = test system: MDA-MB-435
SK-MEL-2 melanoma = test system: SK-MEL-2 melanoma
SF-268 CNS = test system: SF-268 CNS
MDA-N = test system: MDA-N
EKVX NSCLC = test system: EKVX NSCLC
SK-MEL-28 melanoma = test system: SK-MEL-28 melanoma
K-562 leukemia = test system: K-562 leukemia
KM12 colon = test system: KM12 colon
CAKI-1 renal = test system: CAKI-1 renal
UACC-62 melanoma = test system: UACC-62 melanoma
RPMI-8226 leukemia = test system: RPMI-8226 leukemia
RXF 393 renal = test system: RXF 393 renal

## O=C(Nc1cccc(Cl)c1)Nc1ncc(CCNc2ncnc3ccsc23)s1
SR leukemia
  GI50: 1.96 µM [sample A, 1 test] and 29.8 nM [sample B, 1 test]

## COc1cc2cc(C(=O)N3CC(CCl)c4c3cc(NC(=O)C(C)(C)c3ccccc3[N+](=O)[O-])c3ccccc43)[nH]c2c(OC)c1OC (centres undefined)
MOLT-4 leukemia
  TGI: 50 µM and > 600 µM
NCI/ADR-RES ovarian
  TGI: 3.74 µM and 93 µM
A498 renal
  TGI: 2.63 µM and 294 µM
OVCAR-4 ovarian
  TGI: 30.8 µM and 322 µM
TK-10 renal
  TGI: 26.3 µM and > 600 µM
HS 578T breast
  TGI: 29.9 µM and > 600 µM
CCRF-CEM leukemia
  TGI: 1.3 µM and > 600 µM
HCT-15 colon
  TGI: 12.4 µM and 182 µM
SN12C renal
  TGI: 50 µM and > 600 µM
T-47D breast
  TGI: 50 µM and > 600 µM
IGROV1 ovarian
  TGI: 7.58 µM and 239 µM
OVCAR-5 ovarian
  TGI: 22.4 µM and > 600 µM
MDA-MB-231 breast
  TGI: 11.6 µM and > 600 µM
HL-60(TB) leukemia
  TGI: 50 µM and > 600 µM
NCI-H23 lung
  TGI: 1.77 µM and 83.8 µM
SNB-75 CNS
  TGI: 24.7 µM and > 600 µM
NCI-H522 lung
  TGI: 9.38 µM and 306 µM
OVCAR-8 ovarian
  TGI: 5.6 µM and > 600 µM
MALME-3M melanoma
  TGI: 16.3 µM and 341 µM
SK-OV-3 ovarian
  TGI: 28.4 µM and 430 µM
SW-620 colon
  TGI: 45.9 µM and > 600 µM
SNB-19 CNS
  TGI: 50 µM and > 600 µM
ACHN renal
  TGI: 1.81 µM and 22.1 µM
MCF7 breast
  TGI: 724 nM and 213 µM
HOP-92 NSCLC
  TGI: 17.8 µM and > 600 µM
COLO 205 colon
  TGI: 11.7 µM and > 600 µM
SF-295 CNS
  TGI: 17 µM and 278 µM
UO-31 renal
  TGI: 3.45 µM and 119 µM
MDA-MB-435
  TGI: 8.12 µM and > 600 µM
SK-MEL-2 melanoma
  TGI: 13.7 µM and 236 µM
SF-268 CNS
  TGI: 50 µM and > 600 µM
MDA-N
  TGI: 16.8 µM and 377 µM
EKVX NSCLC
  TGI: 50 µM and > 600 µM
SK-MEL-28 melanoma
  TGI: 17 µM and > 600 µM
K-562 leukemia
  TGI: 50 µM and > 600 µM
KM12 colon
  TGI: 8.49 µM and 283 µM
CAKI-1 renal
  TGI: 219 nM and > 600 µM
UACC-62 melanoma
  TGI: 9.73 µM and 112 µM

## CC[C@](C)(O)C(=O)O[C@H]1C(=O)O[C@@H]2C[C@H]3C(C)=CC(=O)[C@@H](O)[C@]3(C)[C@H]3[C@@]4(O)OC[C@]32[C@@H]1[C@@H](C)[C@H]4O
MOLT-4 leukemia
  TGI: 9.06 µM and 77.5 nM
NCI/ADR-RES ovarian
  TGI: 288 nM and 23.8 µM
CCRF-CEM leukemia
  TGI: 14.4 µM and 256 nM
RPMI-8226 leukemia
  TGI: 2.02 µM and 103 nM
RXF 393 renal
  TGI: 1.43 µM and 105 nM
SW-620 colon
  TGI: 3.97 µM and 393 nM
MCF7 breast
  TGI: 18.7 µM [mean of 2 tests] and 647 nM [mean of 3 tests]
HOP-92 NSCLC
  TGI: 923 nM and 54.4 nM
EKVX NSCLC
  TGI: 10.3 µM and 208 nM
K-562 leukemia
  TGI: 16.8 µM and 132 nM
